The campaign covered roughly 7,900 compounds. About 400 (5.1%) showed an effect of 50% or more. Some of the results follow.
Biological target: Parkinson's disease protein 7 (PARK7/DJ1) (human, UniProt Q99497)
Test: primary screen, percent inhibition; read as competition with a fluorescent probe by fluorescence polarization; higher = more effect of the substance
Details: 100 µM
Outline: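 Fluorescence-polarization probe displacement (JYQ-107, 20 nM final, 2 h) after 2 h preincubation of PARK7 (0.2 μM final) with each fragment at 100 μM final. Read-out ex/em 480/520 nm; remaining activity derived from FP signal loss relative to reference controls.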

Parkinson's disease protein 7 (PARK7/DJ1), sequence (Q99497 whole entry, looked up): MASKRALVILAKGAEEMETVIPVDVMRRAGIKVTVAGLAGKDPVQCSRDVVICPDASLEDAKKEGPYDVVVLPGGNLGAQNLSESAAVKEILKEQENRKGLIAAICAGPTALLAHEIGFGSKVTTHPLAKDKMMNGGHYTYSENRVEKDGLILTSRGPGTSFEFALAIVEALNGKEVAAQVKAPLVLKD

| SMILES | Inhibition % [%] |
| --- | --- |
| Cc1ccc(-n2nnnc2SC2CCOC2=O)cc1 (stereo not drawn) | 4.59 |
| C=CC(=O)Nc1cccc(Br)c1 | 2.47 |
| C=CC(=O)N(C)CC(=O)N1CCOCC1 | 16.7 |
| N#Cc1ncoc1-c1cccc(C(F)(F)F)c1 | 6.02 |
| CC(C)CN(C1CC1)S(=O)(=O)C=Cc1ccccc1 | 13.3 |
| CCOc1cc(C)c(S(=O)(=O)n2cccn2)cc1C | 0.397 |
| C=CC(=O)NCC1CCOC1(C)C (stereo not drawn) | -0.439 |
| Cc1c(CN2CCCC3(C2)OCCO3)cc(C#N)n1C | 0.384 |
| O=C(O)C1CCN(C(=O)C=Cc2ccccc2Cl)CC1 | 3.44 |
| CC1(C)OB(c2cccc(O)c2F)OC1(C)C | 14.3 |
| C=CC(=O)N1CC(C)(C)OC[C@@H]1C | 11.5 |
| Cc1ccc(CNC(=O)n2ccnc2)cc1 | 104 |
| c1cc2c(cc1OCC1CO1)OCO2 (stereo not drawn) | 6.5 |
| CC1(C)OB(C2CCCNCC2)OC1(C)C.Cl (stereo not drawn) | 5.32 |
| Cc1cc(Br)ccc1NC(=O)CNC(=O)CCl | 7.91 |
| N#Cc1cc(N2CCCCC2)ccn1 | -2.78 |
| O=C(CCl)Nc1ccccc1C(=O)NC1CCCC1 | 13.6 |
| COCC(C(N)=O)n1c(S)nc2ccccc2c1=O (stereo not drawn) | 8.44 |
| OB(O)C1CCN(Cc2cc3n(n2)CCC3)C1 (stereo not drawn) | 7.79 |
| Cc1cc(C)n(CC2CN(C3CCOC3=O)CCO2)n1 (stereo not drawn) | 6.77 |
| COc1cc(C=C(C#N)C(=O)NC2CC2)ccc1O | 24.5 |
| Oc1cc(C(F)F)nc(S)n1 | 4.43 |
| O=C(CN1CCSC1=O)Nc1ccccc1Cl | 8.88 |
| C=CC(=O)N1CCCC(CN2CCCN(C(C)=O)CC2)C1 (stereo not drawn) | 24.1 |
| C=CC(=O)N(C)C1CCCCC1C (stereo not drawn) | 1.91 |
| Cc1ccc(C=C(C#N)C(N)=O)cc1 | 6.68 |

| SMILES | Inhibition % [%] |
| --- | --- |
| C=CC(=O)Nc1cccc(C(=O)O)c1 | 4.88 |
| O=C(CCl)Nc1ccc(Cl)cc1F | 49.7 |
| Cc1ccc(C=CS(=O)(=O)NCC(=O)O)cc1 | 81.7 |
| C=CC(=O)NC1CC(=O)N(C2CC2c2ccccc2)C1 (stereo not drawn) | 9.29 |
| N#Cc1ncn(-c2ccccc2N)n1 | 7.7 |
| Cl.O=C(CCl)Nc1cccnn1 | 26.1 |
| Cc1ccc(C=CS(=O)(=O)Nc2cnn(CCO)c2)cc1 | 14.7 |
| O=C(CCl)NC1CCN(C(=O)C2CCCCC2)CC1 | 8.22 |
| Cc1nc(CCCl)cs1 | 0.448 |
| Cc1nnc(NC(=O)CCl)s1 | 2.75 |
| CC(=O)SCCc1csc(-c2ccccn2)n1 | 9.81 |
| CC(C)OC1CCC(NC(=O)c2cccnc2S)CC1 (stereo not drawn) | 3.15 |
| C=CC(=O)Nc1ccc2c(cnn2C(F)F)c1 | 6.45 |
| CC1(C)OB(c2ccccc2CC(F)(F)F)OC1(C)C | 7.09 |
| COc1ccccc1CCNC(=O)CCl | 15.8 |
| CCOc1cc(C)c(S(=O)(=O)n2cnc(C)c2)cc1C | 8.85 |
| C=CC(=O)NC1CCOC(c2cccs2)C1 (stereo not drawn) | 6.75 |
| C=CC(=O)NCc1cc(C(F)(F)F)on1 | -2.22 |
| O=C(CCl)Nc1cc2c(cc1Cl)OCCCO2 | 20.3 |
| CC1CN(c2ccc(CNC(=O)CCl)cc2F)CC(C)O1 (stereo not drawn) | 11.7 |
| COc1ccc(CNC(=O)C(C#N)=CN(C)C)cc1 | 9.07 |
| COc1ccc(F)cc1C1CO1 (stereo not drawn) | 4.81 |
| Cc1cc(C(F)(F)F)c(C#N)c(S)n1 | -3.74 |
| CCc1nc(C)cn1S(=O)(=O)c1ccc(Cl)c(OC)c1 | 29.1 |
| Cc1n[nH]c(C)c1C=C(C#N)C(=O)N1CCCC1 | 6.67 |
| CCN1CCCN(c2ccc(C#N)nc2)CC1 | 12.1 |

| SMILES | Inhibition % [%] |
| --- | --- |
| Cl.O=S(=O)(F)CCNc1ccc(F)cc1 | 36.8 |
| C=CC(=O)N1CCOC(c2ccc(OC(F)F)cc2)C1 (stereo not drawn) | 4.4 |
| CN(c1ccccc1)S(=O)(=O)C=Cc1ccccc1 | 4.34 |
| O=S(=O)(F)c1ccc(S(=O)(=O)NC[C@H]2C[C@@H](O)C2)cc1 | 15.3 |
| Cc1cc(Cl)ccc1NC(=O)CN1CCSC1=O | 0.897 |
| N#Cc1ncn(C[C@H](O)c2ccc(F)cc2)n1 | 2.55 |
| CC(=O)c1ccccc1NC(=O)CCl | 19 |
| CC1(C)CCCN1S(=O)(=O)CCC1CCOC1=O (stereo not drawn) | 11.9 |
| O=C(CCl)N(Cc1ccccc1F)C1CC1 | 16.9 |
| CCOC(=O)c1ccccc1NC(=O)CCl | 7.46 |
| CCOc1ccc(Nc2oc(CC)nc2C#N)cc1 | 9.73 |
| O=C(CCl)NCc1ccc(N2CCOCC2)nc1 | 15.2 |
| CC1(C)CN(C(=O)CCl)CCO1 | 47.1 |
| O=C(CCl)Nc1cc(C(F)(F)F)ccc1Cl | 4.72 |
| C=CC(=O)N1CCCC(C(=O)Nc2nccs2)C1 (stereo not drawn) | 7.42 |
| CC1(C)OB(c2cccc(-n3cccn3)c2)OC1(C)C | 5.69 |
| C=CC(=O)N(C)Cc1cnc(C)s1 | 10.4 |
| O=S(=O)(F)N1CCC(CO)CC1 | 5.9 |
| CC1CC(N2CCOC(C)(C)C2)C(=O)O1 (stereo not drawn) | 8.79 |
| Cc1ccc(F)cc1NC(=O)CN1CCSC1=O | 1.55 |
| Cc1c(C#N)c(NC(=O)CCl)n(-c2cccc(F)c2)c1C | 8 |
| N#Cc1ncn(Cc2ccccc2Cl)n1 | 3.41 |
| CC1CC(Sc2nnc(-c3ccccc3F)o2)C(=O)O1 (stereo not drawn) | 1.67 |
| O=C(O)C1CCN(C(=O)C=Cc2ccccn2)C1 (stereo not drawn) | 5.15 |
| COc1ccc(F)c(NC(=O)c2cccnc2S)c1 | 4.52 |
| C=CC(=O)Nc1ccc(C(=O)O)cc1 | 2.67 |

| SMILES | Inhibition % [%] |
| --- | --- |
| O=C(CCl)N1CCc2cc([N+](=O)[O-])ccc21 | 5.06 |
| O=C(CCl)Nc1ccc(C(=O)O)cc1[N+](=O)[O-] | 13.3 |
| CC1CCCCC1OCCCl (stereo not drawn) | 7.37 |
| N#CC(=Cc1cc(Cl)ccc1OCC1CCCO1)C(N)=O (stereo not drawn) | 1.94 |
| C=CC(=O)N1CCC(C)C1c1ccccc1 (stereo not drawn) | 6.89 |
| N#Cc1nc(Cc2ccccc2)oc1N | 10.7 |
| CN(Cc1ccc2ccccc2c1)C1CCOC1=O (stereo not drawn) | -0.28 |
| Cc1ccc(C(N)=O)cc1B1OC(C)(C)C(C)(C)O1 | 4.41 |
| COc1cc(CO)ccc1B1OC(C)(C)C(C)(C)O1 | 4.39 |
| Cl.O=C(CCl)N1CCN(c2cnccn2)CC1 | 55.6 |
| O=S(=O)(C=Cc1ccc(Cl)cc1)NCc1cccnc1 | 2.91 |
| CN(Cc1ccco1)C(=O)CCl | 53 |
| CC(C)C1NC(=O)C12CC=CC2 (stereo not drawn) | 9.96 |
| Cn1cc(C=CC(=O)N2CCCS2(=O)=O)c2ccccc21 | 11.8 |
| Cc1ccc2ncc(C#N)n2c1 | 3.72 |
| CCSC1CCC(Nc2ccc(C#N)nc2)C1 (stereo not drawn) | 4.36 |
| C=CC(=O)N1CCN(C(=O)CC)C1 | 9.38 |
| C=CC(=O)Nc1ccnc(OC2CCCCC2)c1 | 4.74 |
| Fc1ccc(C2CO2)cc1F (stereo not drawn) | 7.25 |
| C=CC(=O)N1Cc2cccc(Cl)c2C1 | 7.04 |
| COc1ccccc1CSc1nccnc1C#N | 1.26 |
| COc1ccc(C2=NC(=Cc3cccnc3)C(=O)O2)cc1 | 6.21 |
| CC1CN(S(=O)(=O)C=Cc2ccccc2)CC(C)O1 (stereo not drawn) | 8.21 |
| Cl.ClCC1CNCCO1 (stereo not drawn) | 3.33 |
| N#Cc1cc(Cl)ccn1 | 52.6 |
| C=CC(=O)NCC1CCCCN1C(=O)C(F)(F)F (stereo not drawn) | 8.51 |

| SMILES | Inhibition % [%] |
| --- | --- |
| CC(F)(F)C1(C(=O)Nc2cccc(S(=O)(=O)F)c2)CC1 | 95.7 |
| Cc1cc(C(=O)CCl)c(C)n1C | 72.1 |
| NC(=O)C1CCN(C(=O)C=Cc2nc3ccccc3o2)C1 (stereo not drawn) | 5.92 |
| CC1(C)OB(c2cccc(OC(F)F)c2)OC1(C)C | 3.49 |
| C=CC(=O)NC(C)(C)c1ncc(C)s1 | 8.21 |
| O=C(CCl)Nc1ccc(OC(F)F)cc1 | 82.8 |
| Cc1nc2ccccc2nc1S | 2.7 |
| O=C(CCl)c1ccc2c(c1)CCN(C(=O)C(F)(F)F)C2 | 2.68 |
| N#Cc1ccc(C2CO2)cc1 (stereo not drawn) | 6.78 |
| C=CC(=O)NC1[C@H]2CCC[C@@H]12 (stereo partly drawn) | 1.39 |
| OC1CCC(CCl)CC1 (stereo not drawn) | 1.08 |
| O=C(c1ccc(F)cc1F)N1CCCCC1C1OCCO1 (stereo not drawn) | 6.52 |
| O=C(CCl)NNC(=O)c1ccccc1Cl | 4.48 |
| C=CC(=O)N1CCCC2(CCSC2)C1 (stereo not drawn) | 3.44 |
| Cc1cc(N)nc(SC2CC(C)OC2=O)n1 (stereo not drawn) | 8.49 |
| Fc1cccnc1N1CCCC(C2OCCO2)C1 (stereo not drawn) | 10.7 |
| C=CC(=O)N1CCc2c(cccc2C(F)(F)F)C1 | -3.37 |
| O=C1C2CCCN2C(=O)N1CCS(=O)(=O)F (stereo not drawn) | 24.6 |
| Cc1ccc2nc(NC(=O)CN3CCSC3=O)sc2c1 | 5.37 |
| C=CC(=O)NCc1nnc2n1CCCC2C(F)(F)F (stereo not drawn) | 8.99 |
| CC(C)(C)OC(=O)N1CCOc2ccc(B3OC(C)(C)C(C)(C)O3)cc2C1 | -1.61 |
| N#Cc1cc(F)ccn1 | 5.03 |
